In patent US20260258125A1:

Molecular target: antigen of the anti-CEACAM5/6 antibodies on HPAC cells
Assay: cell-based or functional assay

B1: PR303561 (Tusamitamab) (antibody, human IgG1, kappa)
heavy: EVQLQESGPGLVKPGGSLSLSCAASGFVFSSYDMSWVRQTPERGLEWVAYISSGGGITYAPSTVKGRFTVSRDNAKNTLYLQMNSLTSEDTAVYYCAAHYFGSSGPFAYWGQGTLVTVSS[letters of human IgG1 constant region omitted]
light: DIQMTQSPASLSASVGDRVTITCRASENIFSYLAWYQQKPGKSPKLLVYNTRTLAEGVPSRFSGSGSGTDFSLTISSLQPEDFATYYCQHHYGTPFTFGSGTKLEIKRTVAAPSVFIFPPSDEQLKSGTASVVCLLNNFYPREAKVQWKVDNALQSGNSQESVTEQDSKDSTYSLSSTLTLSKADYEKHKVYACEVTHQGLSSPVTKSFNRGEC
  Internalization of pHAb-dye-labelled antibody, MFI (37° C.-4° C.)/DAR: 91000
